# Measured values published in the supplement of paper PMC10126150.
# Values marked as one replicate rest on one cluster of the flow cell; about a third of the high ones do not repeat.
# System: ATP
# Assay: switch fluorescence ratio, 500 uM ATP over buffer (Cy3 cluster intensity, sum of 5 cycles each) (fold (ratio)); higher = stronger signal-on switching upon ATP binding; sequences stand for … in TCGTCGGCAGCGTCAGATGTGTATAAGAGACAGTTTTTTTTTTTTTTTTTTTTTTTTT…TC
# Details: aptamer strand: ATP DNA aptamer (quencher-CACCTGGGGGAGTATTGCGGAGGAAGG + anchor), 100 nM annealed; ATP concentration: 500 uM; one replicate
# Method in brief: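 Cy3-labelled switching-strand clusters on a modified Illumina MiSeq flow-cell were annealed to 100 nM quencher-labelled ATP aptamer and imaged first in selection buffer, then after 15 min with 500 uM ATP at 22 °C. NaOH stripping and re-annealing separated each of five buffer/ATP cycles, and clusters outside 100-1000 RFU were excluded. The fluorescence ratio sums target-cycle Cy3 intensity over buffer-cycle Cy3 intensity per cluster and averages it per switch-domain sequence.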
# 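Further: ATP exposure 15 min at 22 °C before imaging.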
row,Sequence,switch fluorescence ratio
1,TGATATAGTC,0.996
2,GATTCGAGGG,0.975
3,CATTGTAAG,1.02
4,TAACGTT,0.999
5,ACATTCGAGC,0.987
6,CGGGGTTTCC,0.957
7,CGAGTCGAGG,0.976
8,GTGAATTGTA,0.992
9,TATATTGTGC,1.04
10,ATAGTGCGCA,1
11,GAAGAAACAC,1.46
12,GATGGGCGCG,0.989
13,GCCAGATCT,0.94
14,GGGAGAAAGA,1.02
15,GCGCTTGCTT,1.11
16,AACGCGGCGT,0.998
17,GTTGTATCT,0.993
18,GAGAGAGAGG,1.03
19,GCGCGATTAG,1.09
20,TAAGAACAAT,1.04
21,TACATATTAT,0.979
22,TAAAATCTGA,1.02
23,GGCGCCCAAG,0.997

row,Sequence,switch fluorescence ratio
1,TGATACATTT,1.02
2,TCTCGGTAAT,2.21
3,CGGAATGCT,2.47
4,CTTTTAAGG,0.986
5,AATCTCGGAC,0.994
6,AAACTGAAGC,1.08
7,TTTACAGCGG,1.01
8,TTACGCCGGT,1.02
9,CTTTGCGA,1.37
10,AGCGTTTTGG,0.964
11,CCAGGGGGTA,1.19
12,TTCCATCAGG,1.31
13,GCCCCCCTGG,1.18
14,GCCATTGTCC,1.02
15,ATTAACCCTA,1.06
16,AGACGTATTT,0.991
17,TTTTGAAGAC,0.985
18,CGAGATGTTT,0.938
19,TATGTTGAGC,1.01
20,CGTTTTTCAT,0.973
21,GCAAGATGCA,1.02
22,ACGCTTTTAT,1.06
23,GGATTCAATG,0.989

row,Sequence,switch fluorescence ratio
1,GCACTATACT,1.62
2,GGCTCTTCGC,1.03
3,TACTATCGTC,0.985
4,AAGGTATTCT,1.02
5,TAGGTAACAC,1.06
6,GAACGGGTTT,0.996
7,GAAACGTGCA,1.03
8,CTAACTTAAA,1.01
9,CAGACACCCT,1.15
10,ACATGTTAAA,1.04
11,AAGAATCATA,1.04
12,GAGGAGTGGG,0.997
13,TGAATCATGC,0.971
14,CTCATACGCC,1.58
15,TCTTTTGTAA,1.01
16,CGTGGATGGC,0.94
17,TTTGTAGAAT,1.01
18,ACTTTGAGGG,1.04
19,GATAACGCCC,1.23
20,GGGCGGTGGC,0.977
21,ACAGAGCAGA,1.18
22,TCCATCAGCG,1.11
23,GACCAGGTAT,1.18

row,Sequence,switch fluorescence ratio
1,CGGGATCCG,0.969
2,TTTGTGGTGC,0.971
3,TCGGATCGTG,1.07
4,GGAGTCTCAC,0.993
5,CTTCAGGGTC,1.01
6,CTCTTCTTTG,0.976
7,ACATTTTAGC,0.98
8,GAACGTCGTG,0.969
9,TAAAATAAAA,1.05
10,TAACCGTGGG,1.03
11,GCGTTGCTGG,0.974
12,ATCTTGCTGG,0.996
13,GCGGCCTGCT,0.984
14,AATACGTTA,1.17
15,GAGTGATGGT,0.998
16,CGTCAGAGCA,1.02
17,GTCGCGCCGT,0.994
18,GACGGTATT,1.09
19,TCTGGGCAAG,1.12
20,AGAACGTTTG,0.955
21,CCAATGGACG,0.965
22,ATTTATTTTC,0.993
23,ATAATACAGA,1.04

row,Sequence,switch fluorescence ratio
1,TCATGCA,1.06
2,CTGATTTGTG,0.992
3,ATAATGGACC,1.05
4,GTGTTATAGA,1.01
5,ATATGATTGG,1.04
6,GCAGAACGGC,1.08
7,GGTCGAGAGC,1.01
8,TCTGTCTGC,0.98
9,AGTGCCATTC,1.03
10,TCTTCTTTAC,1.11
11,GCAATTCAAG,1.08
12,GTTGGGCGTA,1.05
13,AAAGGGTCTG,1.03
14,ATTTGATTGG,1.02
15,GGGCAAGGAC,1.31
16,TTTCGGTGTC,1.06
17,TTGCTCTTAT,1.07
18,ACCAAGAGTG,0.994
19,AGTATTCTCC,1.06
20,TATCTCCGGG,1.14
21,AATGCCGTTC,0.996
22,CGGGCAAGAA,1.75
23,AAGGTGTTAA,1.01

row,Sequence,switch fluorescence ratio
1,TTTGTCTTCA,0.985
2,CAGGCTGAGC,1.04
3,CCCGTATTTT,1.02
4,CACTGTCGT,0.979
5,GGGGCTGTG,0.983
6,GGATGCAACG,1.04
7,CGTGTGCGTC,1.08
8,CTTTTATAAG,1.02
9,AGTGCTGGTA,0.989
10,AGTGAAAAGG,0.986
11,CATGTTCGGC,1
12,GCAGGGCAGC,1
13,GGCTTCACTT,1
14,AGGCCGCCTG,1.03
15,TGCTCCTGAC,1.98
16,TATAGCATAT,1.06
17,AATTGGAACG,1.02
18,CTAAGAGAAT,0.969
19,TCTGGCCGGT,0.972
20,ACGCCGAGGC,0.976
21,GTAAATAGAC,1.01
22,ATAATGGTCA,1.03
23,GACGTTGCGC,0.904

row,Sequence,switch fluorescence ratio
1,ATATAGAGT,1.01
2,AGAGGCAAGT,1.02
3,CATGGAGCTA,1.12
4,CTCATGTGGG,0.965
5,ATTTTGTCAA,1.03
6,ATGCTCAAGG,1.03
7,AGGACACTCG,0.935
8,GACCAGGAGA,1.11
9,ATGGGGTTAG,0.979
10,AAATTCTTTT,0.996
11,GTTTTATACG,1.02
12,CTAGGTGGC,1.13
13,CAATTGCTCT,1.05
14,AAGGTGAAAT,1.01
15,ATCAGGCTAA,1.03
16,AGCGCGACA,1.01
17,ACCGGTTCGT,0.982
18,GAGGGCCGT,0.972
19,TTTAGCTGGC,0.94
20,GGTGTTATAA,1.01
